Source: patent US20190359693A1

B1: MD3609 (Fc fusion)
chain: EVQLVESGGGLVQPGGSLRLSCAVSISIFDIYAMDWYRQAPGKQRDLVATSFRDGSTNYADSVKGRFTISRDNAKNTLYLQMNSLKPEDTAVYLCHVSLYRDPLGVAGGMGVYWGKGALVTVSSGGGGSGGGGSEVQLVESGGGLVQAGGSLKLSCAASGRTYAMGWFRQAPGKEREFVAHINALGTRTYYSDSVKGRFTISRDNAKNTEYLEMNNLKPEDTAVYYCTAQGQWRAAPVAVAAEYEFWGQGTQVTVSSGGGGSGGGGSEVQLVESGGGLVQPGGSLRLSCAATGFTLENKAIGWFRQTPGSEREGVLCISKSGSWTYYTDSMRGRFTISRDNAENTVYLQMDSLKPEDTAVYYCATTTAGGGLCWDGTTFSRLASSWGQGTQVTVSSGGGGSGGGGSEVQLVESGGGLVQPGGSLKLSCAASGFTFSTSWMYWLRQAPGKGLEWVSVINTDGGTYYADSVKDRFTISRDNAKDTLYLQMSSLKSEDTAVYYCAKDWGGPEPTRGQGTQVTVSSAAA[gap - human IgG1 Fc]
B2: MD2642 (Fc fusion)
chain: EVQLVESGGGLVQPGGSLRLSCAVSISIFDIYAMDWYRQAPGKQRDLVATSFRDGSTNYADSVKGRFTISRDNAKNTLYLQMNSLKPEDTAVYLCHVSLYRDPLGVAGGMGVYWGKGALVTVSSGGGGSGGGGSEVQLVESGGGLVQAGGSLKLSCAASGRTYAMGWFRQAPGKEREFVAHINALGTRTYYSDSVKGRFTISRDNAKNTEYLEMNNLKPEDTAVYYCTAQGQWRAAPVAVAAEYEFWGQGTQVTVSS[gap - human IgG1 Fc]GGGGSGGGGSEVQLVESGGGLVQPGGSLRLSCAATGFTLENKAIGWFRQTPGSEREGVLCISKSGSWTYYTDSMRGRFTISRDNAENTVYLQMDSLKPEDTAVYYCATTTAGGGLCWDGTTFSRLASSWGQGTQVTVSSGGGGSGGGGSEVQLVESGGGLVQPGGSLKLSCAASGFTFSTSWMYWLRQAPGKGLEWVSVINTDGGTYYADSVKDRFTISRDNAKDTLYLQMSSLKSEDTAVYYCAKDWGGPEPTRGQGTQVTVSS
B3: MD2615 (Fc fusion)
chain: EVQLVESGGGLVQPGGSLRLSCAVSISIFDIYAMDWYRQAPGKQRDLVATSFRDGSTNYADSVKGRFTISRDNAKNTLYLQMNSLKPEDTAVYLCHVSLYRDPLGVAGGMGVYWGKGALVTVSSAAA[gap - human IgG1 Fc]GGGGSGGGGSEVQLVESGGGLVQPGGSLRLSCAATGFTLENKAIGWFRQTPGSEREGVLCISKSGSWTYYTDSMRGRFTISRDNAENTVYLQMDSLKPEDTAVYYCATTTAGGGLCWDGTTFSRLASSWGQGTQVTVSS
B4: MD2611 (Fc fusion)
chain: EVQLVESGGGLVQPGGSLRLSCAVSISIFDIYAMDWYRQAPGKQRDLVATSFRDGSTNYADSVKGRFTISRDNAKNTLYLQMNSLKPEDTAVYLCHVSLYRDPLGVAGGMGVYWGKGALVTVSSGGGGSGGGGSEVQLVESGGGLVQPGGSLRLSCAATGFTLENKAIGWFRQTPGSEREGVLCISKSGSWTYYTDSMRGRFTISRDNAENTVYLQMDSLKPEDTAVYYCATTTAGGGLCWDGTTFSRLASSWGQGTQVTVSSAAA[gap - human IgG1 Fc]
B5: MD2605 (Fc fusion)
chain: EVQLVESGGGLVQPGGSLRLSCAVSISIFDIYAMDWYRQAPGKQRDLVATSFRDGSTNYADSVKGRFTISRDNAKNTLYLQMNSLKPEDTAVYLCHVSLYRDPLGVAGGMGVYWGKGALVTVSSAAA[gap - human IgG1 Fc]
B6: MD2607 (Fc fusion)
chain: EVQLVESGGGLVQPGGSLRLSCAATGFTLENKAIGWFRQTPGSEREGVLCISKSGSWTYYTDSMRGRFTISRDNAENTVYLQMDSLKPEDTAVYYCATTTAGGGLCWDGTTFSRLASSWGQGTQVTVSSAAA[gap - human IgG1 Fc]

Columns and labels:
Assay in all cases: cell-based or functional assay
[1] = biological target: hemagglutinin (HA) of influenza A/Vietnam/1194/04 (H5N1) (influenza A virus)
[2] = biological target: hemagglutinin (HA) of influenza A/Wisconsin/67/05 (H3N2) (influenza A virus)
[3] = biological target: hemagglutinin (HA) of influenza A/Johannesburg/33/94 (H3N2) (influenza A virus)
[4] = biological target: hemagglutinin (HA) of influenza A/Northern Pintail/MPC2085/07 (H11N9) (influenza A virus)
[5] = biological target: hemagglutinin (HA) of influenza A/California/07/09 (H1N1) (influenza A virus)
[6] = biological target: hemagglutinin (HA) of influenza A/Hiroshima/52/05 (H3N2) (influenza A virus)
[7] = biological target: hemagglutinin (HA) of influenza A/NIBRG/60 (A/mallard/Netherlands/12/00) (H7N3) (influenza A virus)
[8] = biological target: hemagglutinin (HA) of influenza A/Brisbane/59/07 (H1N1) (influenza A virus)
[9] = biological target: hemagglutinin (HA) of influenza B/Malaysia/2506/04 (Victoria) (influenza B virus)
[10] = biological target: hemagglutinin (HA) of influenza B/Florida/04/06 (Yamagata) (influenza B virus)
[11] = biological target: hemagglutinin (HA) of influenza A/Panama/2007/99 (H3N2) (influenza A virus)
[12] = biological target: hemagglutinin (HA) of influenza A/Eurasian Wigeon/MPH571/08 (H8N4) (influenza A virus)
[13] = biological target: hemagglutinin (HA) of influenza A/New Caledonia/20/99 (H1N1) (influenza A virus)
[14] = biological target: hemagglutinin (HA) of influenza A/Brisbane/10/07 (H3N2) (influenza A virus)
[15] = biological target: hemagglutinin (HA) of influenza A/PR8 H5N1 HK97 (H5N1) (influenza A virus)
[16] = biological target: hemagglutinin (HA) of influenza A/Solomon Islands/3/2006 (IVR 145) (H1N1) (influenza A virus)
[17] = biological target: hemagglutinin (HA) of influenza A/Fukui/45/04 (H3N2) (influenza A virus)
[18] = biological target: hemagglutinin (HA) of influenza A/Victoria/210/09 (H3N2) (influenza A virus)
[19] = biological target: hemagglutinin (HA) of influenza A/WF/HK/MPA892/06 (H4) (influenza A virus)
[20] = biological target: hemagglutinin (HA) of influenza A/Perth/16/09 (H3N2) (influenza A virus)
[21] = biological target: hemagglutinin (HA) of influenza B/Harbin/7/94 (Yamagata) (influenza B virus)
[22] = biological target: hemagglutinin (HA) of influenza A/Anhui/1/13 (H7N9) (influenza A virus)
[23] = biological target: hemagglutinin (HA) of influenza A/Shanghai/2/13 (H7N9) (influenza A virus)
[24] = biological target: hemagglutinin (HA) of influenza A/Christchurch/16/10 (H1N1) (influenza A virus)
[25] = biological target: hemagglutinin (HA) of influenza B/Massachusetts/02/12 (Yamagata) (influenza B virus)
[26] = biological target: hemagglutinin (HA) of influenza virus H3N2 A/Wisconsin/67/05 (influenza A virus)
[27] = biological target: hemagglutinin (HA) of influenza virus H1N1 A/New Caledonia/20/99 (influenza A virus)
[28] = biological target: hemagglutinin (HA) of influenza virus H5N1 A/Vietnam/1194/04 (influenza A virus)
[29] = biological target: hemagglutinin (HA) of influenza virus H3N2 A/Brisbane/10/07 (influenza A virus)
[30] = biological target: hemagglutinin (HA) of influenza virus B/Florida/04/06 (Yamagata) (influenza B virus)
[31] = biological target: hemagglutinin (HA) of influenza virus H7N9 A/Anhui/1/13 (influenza A virus)
[32] = biological target: hemagglutinin (HA) of influenza virus H2N2 A/WF/HK/MPU3156/05 (influenza A virus)
[33] = biological target: hemagglutinin (HA) of influenza virus H2N2 A/Guiyang/1/57 (influenza A virus)
[34] = biological target: hemagglutinin (HA) of influenza virus H1N1 A/Puerto Rico/8/34-MA (influenza A virus)

Row | Binder | Average neutralization titers [1] | Average neutralization titers [2] | Average neutralization titers [3] | Average neutralization titers [4] | Average neutralization titers [5] | Average neutralization titers [6] | Average neutralization titers [7] | Average neutralization titers [8] | Average neutralization titers [9] | Average neutralization titers [10] | Average neutralization titers [11] | Average neutralization titers [12] | Average neutralization titers [13] | Average neutralization titers [14] | Average neutralization titers [15] | Average neutralization titers [16] | average neutralization titer [26] | average neutralization titer [28] | average neutralization titer [29] | average neutralization titer [30] | also measured
1 | B1 | 15.5 nM | 30.9 nM | 16.2 nM | 27.3 nM | 5.5 nM | 16.2 nM | 21.9 nM | 5.5 nM | 5.5 nM | 5.5 nM | 26 nM | 14 nM | 13 nM | 14.2 nM | 6.5 nM | 6.5 nM |  |  |  |  | Average neutralization titers [17]: 21.9 nM; Average neutralization titers [18]: 8.1 nM; Average neutralization titers [19]: 6.5 nM; Average neutralization titers [20]: 12.9 nM; Average neutralization titers [21]: 1.4 nM
2 | B2 | 7.5 nM | 12.5 nM | 16.2 nM | 8.2 nM | 3.6 nM | 16.2 nM | 14.2 nM | 2.7 nM | 3.5 nM | 1.8 nM | 21.9 nM | 7 nM | 6.3 nM | 13.5 nM | 4.7 nM | 4.8 nM |  |  |  |  | Average neutralization titers [22]: 30.4 nM; Average neutralization titers [23]: 24.7 nM; Average neutralization titers [24]: 2.1 nM; Average neutralization titers [17]: 21.9 nM; Average neutralization titers [18]: 9.7 nM; Average neutralization titers [19]: 5.2 nM; Average neutralization titers [20]: 11.1 nM; Average neutralization titers [25]: 1 nM; Average neutralization titers [21]: 1.1 nM
3 | B3 |  |  |  |  |  |  |  |  |  |  |  |  |  |  |  |  | 39.5 nM | 14.5 nM | 26.8 nM | 165 nM | average neutralization titer [27]: 12.2 nM
4 | B4 |  |  |  |  |  |  |  |  |  |  |  |  |  |  |  |  | 147 nM | 10.3 nM | 41.8 nM | 330 nM | average neutralization titer [27]: 17.3 nM
5 | B5 |  |  |  |  |  |  |  |  |  |  |  |  |  |  |  |  | 37.8 nM | 8.4 nM | 25.1 nM |  | average neutralization titer [31]: 190 nM; average neutralization titer [32]: 13.3 nM; average neutralization titer [33]: 23.7 nM
6 | B6 |  |  |  |  |  |  |  |  |  |  |  |  |  |  |  |  |  |  |  | 252 nM | average neutralization titer [34]: 1260 nM
